Structures are written as SMILES. Out of some 43,000 compounds screened, about 200 (0.47%) were called active. Inconclusive results (about 12%) are left out. Calls follow the shape of the dose curve; as a rule, active = well fitted cell-killing curve with a large enough effect; inconclusive = small, poorly fitted or top-dose-only effect, or effect the other way; inactive = flat fitted curve, though single readings scatter. The list shows a part of the results.
% is scaled to controls: 0 for no effect and ±100 for the full control effect.

This assay in a line: Cell viability qHTS assay in S16 Pmp22-F2sN cells. Also: nearly all actives have a fitted effect of over 65% in size. Particulars: S16 Pmp22-F2sN Schwann cells (luciferase reporters placed in the Pmp22 gene) viability, CellTiter-Glo, 24 h; series mostly up to 57.5 µM; activity change, negative = cytotoxicity: at the top concentration. A digest of the protocol:
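Luminescence from CellTiter-Glo, read by CCD camera after a 15 min room-temperature incubation, served as the viability signal. Reporter Schwann cells (S16 Pmp22-F2sN) had been treated with pin-transferred compounds for 24 h at 37C.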
Regarding `CC(NC(=O)C1=Cc2ccccc2OC1)c1ccccc1` (centres undefined), the “activity change, negative = cytotoxicity” value is inactive: -9.32%.
Then `COc1cc(OC)cc(-c2cc3nc(C)c(CCC(=O)Nc4ccc(F)c(Cl)c4)c(C)n3n2)c1`, with inactive: 3.01%; and `Cn1c(=O)cc(OCC(=O)N2CCN(c3ccc(F)cc3)CC2)c2ccccc21`, with inactive: 4.98%.
The figure for `CCOc1ccccc1Nc1ncnc2c1c(-c1ccccc1)cn2-c1ccc(OC)cc1` is inactive: -8.94%.
The figure for `CCOCN(C(=O)Cn1c(CC(C)C)nc2ccccc21)c1c(C)cccc1CC` is inactive: -1.27%.
As for `CC(C)c1ccc(NC(=O)C(NS(=O)(=O)c2ccc3c(c2)CCC(=O)N3)c2ccccc2)cc1` (centres undefined), the “activity change, negative = cytotoxicity” value was inactive: -4.65%.
Then `Cc1ccc(-c2cn3cccnc3n2)cc1NC(=O)Cc1ccccc1`, with inactive: -1.23%.
The figure for `O=S(=O)(c1ccccc1)c1nc(-c2ccccc2)oc1N1CCN(c2cccc(Cl)c2)CC1` is inactive: 15.5%; for `O=C(CSCc1cnn(-c2ccccc2)c1-n1cccc1)NCc1ccccc1Br` it is inactive: -2.58%.
Then `CCc1ccc(NC(=O)COCc2cc(-c3ccc(F)cc3)on2)cc1`, with inactive: -3.67%; and `Cc1cc(C)cc(NC(=O)c2ncn(-c3ccccc3)n2)c1`, with inactive: -1.64%.
On to `Cc1c(Cl)cccc1NC(=O)C(C)N(c1ccccc1)S(C)(=O)=O` (centres undefined), for which the “activity change, negative = cytotoxicity” value was inactive: 6.16%.
The figure for `COc1cccc(-c2nc(SCC(=O)NC3CCCC3)c(-c3ccc(F)cc3)[nH]2)c1` is inactive: -24.6%; for `COc1ccc(NC(=O)CN(c2ccccc2OC)S(C)(=O)=O)c(OC)c1` it is inactive: 14%; for `COc1cc(NC(=O)CCc2c(C)nc3c4c(C)cc(C)nc4nn3c2C)cc(OC)c1` it is inactive: -0.503%.
Then `Cc1cc(C)cc(NC(=O)CCCn2nc(C)c3c(C)n(-c4ccccc4)nc3c2=O)c1`, with inactive: 10.4%.
The figure for `COc1cc(-c2nnc(SCC(=O)Oc3ccc(C)cc3C)o2)cc(OC)c1OC` is inactive: 6.02%.
As to `CCOC(=O)C1(C)C=C(Nc2cccc(C)c2)C(=O)N1c1ccccc1` (centres undefined), the “activity change, negative = cytotoxicity” value was inactive: 4.91%.
In the case of `CCOc1ccccc1NC(=O)C1=C(C)Nc2ncnn2C1c1ccccn1` (centres undefined), the “activity change, negative = cytotoxicity” value is inactive: 4.74%.
The figure for `CCOC(=O)CCn1cnc2onc(-c3ccccc3Cl)c2c1=O` is inactive: 10.6%.
Then `COC(=O)c1ccc(Nc2ncnc3c2cnn3-c2ccccc2)cc1`, with inactive: 0.876%; and `COc1cc(Cl)c(C)cc1NS(=O)(=O)c1c(C)nc2sccn2c1=O`, with inactive: -19.8%; and `COc1ccc(C2=C(C)C(=O)N(Cc3ccc(C(=O)Nc4ccc(C)c(C)c4)cc3)S2(=O)=O)cc1`, with inactive: 15.4%.
Then `Cc1cccc(-n2ncc3c(N4CCN(CCO)CC4)ncnc32)c1`, with inactive: 8.77%.
As for `Cc1ccc(Cl)cc1NC(=O)N1CCc2cc(S(=O)(=O)N3CCC(C)CC3)ccc21`, the “activity change, negative = cytotoxicity” value is inactive: 7.11%.
Then `O=C(Nc1nnc2n1CCS2)c1ccccc1`, with inactive: -2.69%; and `COC(=O)c1ccc2c(=O)n(CCCCCC(=O)NC(C)C)c(=O)[nH]c2c1`, with inactive: -19.8%.
Then `Cc1cc(C)cc(NC(=O)CCS(=O)(=O)c2ccc3c(c2)oc(=O)n3C)c1`, with inactive: -2.88%; and `CCOc1ccc(C(=O)Nc2ccc3nc(SCC(=O)N(C)c4ccccc4)sc3c2)cc1`, with inactive: -33.9%; and `CCOC(=O)c1cc(-c2ccc(OC)cc2)n(CCC(=O)Nc2ccc(OC)cc2OC)c1C`, with inactive: -10.8%.
The figure for `CCOc1ccc(CNC(=O)C2CCN(Cc3cc4ccccc4n3Cc3ccccc3C)CC2)cc1` is inactive: 1.37%; for `CC(C)CC(C(=O)NCCc1ccccc1)N1Cc2ccccc2C1=O` (centres undefined) it is inactive: -11.5%; for `CCc1ccc(NC(=O)CCCn2nc(C)c3c(C)n(-c4ccccc4)nc3c2=O)cc1` it is inactive: -2.47%.
As for `CCCSc1nnc2n(-c3ccc(OC)cc3)c(=O)c3c4c(sc3n12)COC(C(C)C)C4` (centres undefined), the “activity change, negative = cytotoxicity” value was inactive: 21%.
The figure for `Cc1nn(C(C)(C)C)c(OC(=O)c2cccc(F)c2)c1Sc1ccccc1` is inactive: -17.5%.
The figure for `Cc1c(CNC2CCCCCC2)c(C(=O)O)c(C)n1Cc1ccc(F)cc1` is inactive: 14.7%; for `CCc1ccc(CN(Cc2ccco2)C(=O)COc2ccc(Cl)cc2C)cc1` it is inactive: -12.7%.
With `CC(=O)Nc1ccc2nc(SCCOc3ccccc3)sc2c1`, the “activity change, negative = cytotoxicity” value was inactive: 13.2%.
Then `Cc1ccc(NC(=O)C(=O)NCCCN2CCOCC2)cc1C`, with inactive: 9.94%; and `Cc1cccc(NC(=O)C2(C)Cc3ccccc3C(=O)O2)c1` (centres undefined), with inactive: 11.9%.
Then `Cc1ccc2nc(N(Cc3cccnc3)C(=O)c3cccs3)sc2c1`, with inactive: -18.7%.
The figure for `CCCn1c(CCC(=O)Nc2cccc(CC)c2)nc2cccnc21` is inactive: 6.7%; for `COc1ccc(-n2c(=O)c3sc4ccccc4c3n(CC(=O)NCc3ccccc3)c2=O)cc1` it is inactive: -0.249%.
As to `Cc1ccccc1CNC(=O)c1ccc(CS(=O)Cc2ccc(Cl)cc2)o1` (centres undefined), the “activity change, negative = cytotoxicity” value was inactive: 14%.
Then `O=[N+]([O-])c1cc(-c2nc(-c3ccccc3)no2)ccc1NCCc1ccccc1`, with inactive: -6.03%; and `CCOc1ccc(N2CC(c3nc4ccccc4n3Cc3cccc(C)c3)CC2=O)cc1` (centres undefined), with inactive: -3.11%.
Then `CCc1nc2c(cnn2-c2ccc(Cl)cc2)c(=O)n1-c1ccc(OC)c(Cl)c1`, with inactive: 5.12%.
Then `Cc1ccc(OCC(=O)Nc2cc(-c3cccc(C)c3)nn2-c2ccccc2)cc1`, with inactive: 13.4%; and `CCOc1ccccc1C(=O)Nc1cc2c(cc1N1CCOCC1)n(C)c(=O)n2C`, with inactive: -5.94%; and `Cc1ccc(CCNC(=O)c2ccc3c(c2)c(C)c(C)n3Cc2ccccc2)cc1`, with inactive: -22.8%.
`O=C(Nc1cccc(F)c1)[C@@H](c1ccccc1)N1Cc2ccccc2C1=O`: the “activity change, negative = cytotoxicity” value is inactive: 1.04%.
The figure for `COc1ccc(Cl)cc1NC(=O)CSc1nc(-c2ccccc2)c2ccccc2n1` is inactive: 0.313%; for `CCn1c(CC2C(=O)N(C)c3ccccc32)nc2ccccc2c1=O` (centres undefined) it is inactive: 3.24%.
Then `COc1ccc(NC(=O)CCN2CCN(CCO)CC2)cc1`, with inactive: -7.46%; and `CCN(c1cc(C)cc(C)c1)S(=O)(=O)c1nnc(NC(=O)c2ccco2)s1`, with inactive: -4.09%.
In the case of `CCOc1ccc(C(=O)Nc2ccc(-c3nc4ccccc4s3)c(C)c2)cc1OCC`, the “activity change, negative = cytotoxicity” value was inactive: 8.03%.
The figure for `Cc1ccc(NC(=O)Cn2nnc(-c3nc(-c4ccc(Cl)cc4)no3)c2N)cc1C` is inactive: 3.6%.
In the case of `Cc1nc2c(C(=O)NCCc3ccccc3)c[nH]n2c(=O)c1Cc1ccc(F)cc1Cl`, the “activity change, negative = cytotoxicity” value is inactive: 8.8%.
The figure for `CCCSc1ncc(Cl)c(C(=O)Nc2c(C(=O)c3ccc(F)cc3)oc3ccccc23)n1` is inactive: 15.6%; for `COc1ccccc1N1CCN(C(=O)Cn2c(=O)n3nc(-c4cccc(C)c4)nc3c3ccccc32)CC1` it is inactive: 9.53%; for `COc1ccc(CCNC(=O)c2c(C)nn(-c3ccc(F)cc3)c2-n2cccc2)c(OC)c1OC` it is inactive: 10.3%.
Then `CC(C)CSc1ccccc1NC(=O)c1sc2nc(-c3ccncc3)ccc2c1N`, with inactive: -1.02%; and `CCOC(=O)c1c(NC(=O)C(C)Oc2ccc(Cl)c(C)c2)sc2c1CCCC2` (centres undefined), with inactive: 5.2%.
Then `O=C(Cn1cc(S(=O)(=O)Cc2ccccc2F)c2ccccc21)NCc1ccccc1Cl`, with inactive: -6.28%.

The values are drawn from PubChem BioAssay AID1508642 (National Center for Advancing Translational Sciences (NCATS), 2021).
